# Publication PMC12040169 (PLOS Biology, 2025)
# The other results are listed elsewhere or left out.
# Test system: T1, C. trachomatis L2/434/Bu expressing GFP (CTL2-GFP)
# T1 construct: L2/434/Bu GFP intracellular growth in HeLa cells
# Parameters: species or system HeLa; C. trachomatis total inclusion area by high-content imaging, normalised to DMSO
# Conditions: total inclusion area; 28.5 h, 10 µM; inhibitor
# How it was run: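 Bulk GFP and resorufin signals were read first. Wells were then fixed, stained with Hoechst and imaged to detect GFP inclusions and host nuclei. MICs followed the previously described calculation.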
row,SMILES,% of control remaining
1,O=C(COc1ccccc1)Nc1ccc2n(c1=O)C[C@H]1C[C@@H]2CN(C(=O)c2ccccc2)C1 [CBK289079],116.341
2,Cc1cc(COc2nc3ccccc3nc2N2CCCC2C(=O)OC(C)(C)C)no1 (stereo not drawn) [CBK173753],72.7543
3,O=C(NCc1csc(-c2ccccc2)n1)C1CC=CCC1 (stereo not drawn) [CBK092348],101.435
4,Cc1cccc(-c2ccc3c(c2)C(=O)N2CC[C@H](NC(=O)N4CCOCC4)[C@H]2C(=O)N3)c1C [CBK289347],105.162
5,N#Cc1c(NC(=O)CN2CCc3ccccc3C2)sc2c1CCCC2 [CBK269126],89.0647
6,Nc1ncc(-c2cccc(OC(F)(F)F)c2)nc1N1CCN(CCO)CC1 [CBK063435],94.5799
7,CNc1ccc(OC(=O)c2ccco2)cc1 [CBK010779],48.4964
8,Cc1ccc2c(c1)CC(=O)NC21CCN(C(=O)C2CC2C(=O)O)CC1 (stereo not drawn) [CBK047258],97.8383
9,Brc1ccc(-n2c(SC/C=C/c3ccccc3)nnc2-c2ccncc2)cc1 [CBK266257],120.41
10,Cc1cc(C)n(CCCN(C)Cc2c(C)nc3ccccn23)n1 [CBK281901],87.3526
11,CCCn1c(CN2CCN(CCO)CC2)nc2ccccc21 [CBK269363],102.877
12,Cc1sc(NC(=S)NC(=O)Cc2cccc3ccccc23)c(C(N)=O)c1C [CBK266344],118.58
13,COc1ccc([N+](=O)[O-])cc1-c1ccc(-c2nc(-c3ccccc3)c(-c3ccccc3)[nH]2)o1 [CBK262497],109.558
14,Cc1nn2c(-c3cccc(NC(=O)CN4CCOCC4)c3)nnc2c2ccccc12 [CBK268383],109.064
15,Cc1cccnc1C(NC(=O)C1CCN(C/C=C/c2ccco2)CC1)c1ccc(Cl)cc1 (stereo not drawn) [CBK148201],100.628
16,Cc1ccc(NC(=O)CN2C(=O)S/C(=C\c3cc(C)n(-c4ccc(C(=O)O)cc4)c3C)C2=O)cc1 [CBK264465],114.61
17,O=C(Nc1cc2ccccc2c(Br)n1)c1ccc(C(F)(F)F)cc1[N+](=O)[O-] [CBK063299],88.616
18,NC(=O)CSc1nnc2ccc3ccccc3n12 [CBK287794],71.1348
19,O=C(c1n[nH]c2ccccc12)N1CCc2ccccc21 [CBK200282],100.258
20,O=C(Nc1ccc(Cc2ccncc2)cc1)c1ccc(-c2cc3ccccc3oc2=O)cc1 [CBK268952],93.8127

row,SMILES,% of control remaining
1,OC1(Cn2cnc3ccccc32)CCN(CCc2ccccc2)CC1 [CBK284789],107.269
2,CCOC(=O)N1CCC(NS(=O)(=O)c2cc(C(=O)OC)n(C)c2)CC1 [CBK304688],69.9404
3,Cc1cnc(CNC(=O)N2CCN(c3cc(C(F)(F)F)ccn3)CC2)cn1 [CBK162320],37.083
4,Cc1ccc(SCC(=O)Nc2cc(C)on2)cc1 [CBK057070],78.5782
5,Cc1nc(-c2ccccc2)sc1C(=O)C1=C(O)C(=O)N(CCN2CCOCC2)C1c1ccccc1F (stereo not drawn) [CBK266511],133.066
6,Cn1ccnc1C1(O)CC2CCC(C1)N2C(=O)c1ccccc1F (stereo not drawn) [CBK284085],93.985
7,Cn1c2ccccc2c2nnc(SCCCC(=O)c3ccc4c(c3)OCCO4)nc21 [CBK268750],129.743
8,COCCN(C(=O)CSc1ccc2ccccc2n1)C1CCS(=O)(=O)C1 (stereo not drawn) [CBK304988],87.3393
9,Fc1cc(Br)c(CNCc2ccno2)c(N2CCCCC2)c1F [CBK304723],80.9406
10,CN1CCN(C(=O)CCn2c(C(F)(F)F)cc3cccnc32)CC1 [CBK284896],95.5458
11,N=C(N)NCC(=O)N(CCc1cc(C(F)(F)F)cc(C(F)(F)F)c1)c1cccc2ccccc12 [CBK001122T],30.6099
12,OCCC1CNCCN1Cc1ccc(F)c(F)c1 (stereo not drawn) [CBK269824],90.0226
13,Cc1cc2c(s1)c1cnn(CC(=O)N3CCCC3)c(=O)c1n2C [CBK284153],85.1719
14,O=C(NCc1ccncc1)OCCc1ccncc1 [CBK200133],94.3487
15,CC(=O)Nc1ccc(C(=O)N2CCNC(=O)C2Cc2ccccc2-c2cccc(C)c2)cc1 (stereo not drawn) [CBK285837],108.4
16,Cc1ccc(S(=O)(=O)N2c3ccc(C(=O)O)cc3CC2C)cc1 (stereo not drawn) [CBK286584],84.918
17,N#C/C(=C/c1ccc(-c2ccc(S(N)(=O)=O)cc2)o1)S(=O)(=O)c1ccc(Cl)cc1 [CBK266383],77.4586
18,CCOc1cc(OCC)cc(C(=O)N2CCC3(CC2)CC(=O)c2ccc(OCC)c(C)c2O3)c1 [CBK168015],57.2441
19,CCOc1ccccc1OCC(=O)NN [CBK261782],91.8612
